Molecular target: T1, MMP-2 (Homo sapiens, UniProt P08253)
T1 construct: purchased Anaspec
T1 sequence (P08253 110-660): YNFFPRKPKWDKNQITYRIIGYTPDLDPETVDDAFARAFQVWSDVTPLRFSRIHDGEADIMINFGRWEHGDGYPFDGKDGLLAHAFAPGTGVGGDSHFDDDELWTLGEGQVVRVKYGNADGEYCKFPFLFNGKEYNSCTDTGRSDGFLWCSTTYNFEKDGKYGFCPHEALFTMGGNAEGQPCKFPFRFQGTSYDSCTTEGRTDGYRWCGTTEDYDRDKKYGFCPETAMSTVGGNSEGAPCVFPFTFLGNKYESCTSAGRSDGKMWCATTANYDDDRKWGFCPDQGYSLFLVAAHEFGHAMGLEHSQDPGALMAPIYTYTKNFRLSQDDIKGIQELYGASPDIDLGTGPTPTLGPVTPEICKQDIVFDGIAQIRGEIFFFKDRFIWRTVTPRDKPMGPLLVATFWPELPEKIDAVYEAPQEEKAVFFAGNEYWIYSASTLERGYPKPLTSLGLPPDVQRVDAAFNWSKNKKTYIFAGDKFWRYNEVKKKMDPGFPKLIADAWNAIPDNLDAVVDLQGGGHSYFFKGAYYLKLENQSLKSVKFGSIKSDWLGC
Test: Purified MMP-2 sensor detecting activated MMP-2 (Bright-Glo luminescence)
Type: biochemical
Conditions: 37° C. for 1 hr
Description: The MMP-2 sensor (SEQ ID NOs:69 and 70) used herein contains the 1A5 variant backbone and the human MMP-2 recognition site, PLGMWSR (SEQ ID NO:75). In addition, the MMP-2 sensor contains two purification tags: a GST tag on the N-terminus of the sensor that is separated from the sensor region by a TEV protease site (for removal of the GST tag from the purified MMP-2 sensor) and a 5×HQ (HQHQHQHQHQ; SEQ ID NO:79) tag on the C-terminus of the sensor.
Activated MMP-2 (10 ng/μL; Anaspec) was added to the diluted MMP-2 sensor as described in FIG. 15. Total volume of the final reaction mixture was 50 μL. The mixture was incubated at 37° C. for 1 hr. Bright-Glo Assay Reagent (Promega) was prepared according to the manufacturer's instructions, and 50 μL added to the mixture. Luminescence was read immediately on a GloMax MultiPlus luminometer.
FIG. 15 presents the fold increase over control (background from MMP-2 sensor).

B1: MMP-2 sensor: 1A5 variant backbone with human MMP-2 recognition site PLGMWSR, GST and 5×HQ tags (SEQ ID NOs:69 and 70) (protein)
chain: [sequence of about 200 residues omitted]SGGGGGENLYFQAIAMPGSTGKIVPLHAVKVVDPTTGKILGPNEPGELYFKGPMIMKGYYNNEEATKAIIDNDGWLRSGDIAYYDNDGHFYIVDRLKSLIKYKGYQVAPAEIEGILLQHPYIVDAGVTGIPDEAAGELPAAGVVVQTGKYLNEQIVQDYVASQVSIAKWLRGGVKFLDEIPKGSTGKIDRKVLRQMLEKHTNGSPLGMWSRSLKNILYGPEPFYPLEDGTAGEQMFDALSRYAAIPGCIALTNAHTKENVLYEEFLKLSCRLAESFKKYGLKQNDTIAVCSENSLQFFLPVIASLYLGIIVAPVNDKYIERELIHSLGIVKPRIVFCSKNTFQKVLNVKSKLKSIETIIILDLNEDLGGYQCLNNFISQNSDSNLDVKKFKPYSFNRDDQVASIMFSSGTTGLPKGVMLTHKNIVARFSIAKDPTFGNAINPTSAILTVIPFHHGFGMMTTLGYFTCGFRVVLMHTFEEKLFLQSLQDYKVESTLLVPTLMAFLAKSALVEKYDLSHLKEIASGGAPLSKEIGEMVKKRFKLNFVRQGYGLTETTSAVLITPKGVSHQHQHQHQHQ
  amount of MMP-2 protein detected (as little as): 0.75 ng
